{
  "source": "paper PMC4336329",
  "about": "(PLoS ONE, 2015)",
  "note": "The whole screen tested about 310,000 compounds, of which about 14,000 (4.5%) showed an effect of 50% or more. The effect is printed as a negative number. Some of the results follow.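 Further: peak tail current of the secondary pulse compared with the same well before compound.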",
  "data": [
    {"target": "human ether-à-go-go-related gene (hERG) potassium channel (human, UniProt Q12809)", "sequence (Q12809 whole entry, looked up)": "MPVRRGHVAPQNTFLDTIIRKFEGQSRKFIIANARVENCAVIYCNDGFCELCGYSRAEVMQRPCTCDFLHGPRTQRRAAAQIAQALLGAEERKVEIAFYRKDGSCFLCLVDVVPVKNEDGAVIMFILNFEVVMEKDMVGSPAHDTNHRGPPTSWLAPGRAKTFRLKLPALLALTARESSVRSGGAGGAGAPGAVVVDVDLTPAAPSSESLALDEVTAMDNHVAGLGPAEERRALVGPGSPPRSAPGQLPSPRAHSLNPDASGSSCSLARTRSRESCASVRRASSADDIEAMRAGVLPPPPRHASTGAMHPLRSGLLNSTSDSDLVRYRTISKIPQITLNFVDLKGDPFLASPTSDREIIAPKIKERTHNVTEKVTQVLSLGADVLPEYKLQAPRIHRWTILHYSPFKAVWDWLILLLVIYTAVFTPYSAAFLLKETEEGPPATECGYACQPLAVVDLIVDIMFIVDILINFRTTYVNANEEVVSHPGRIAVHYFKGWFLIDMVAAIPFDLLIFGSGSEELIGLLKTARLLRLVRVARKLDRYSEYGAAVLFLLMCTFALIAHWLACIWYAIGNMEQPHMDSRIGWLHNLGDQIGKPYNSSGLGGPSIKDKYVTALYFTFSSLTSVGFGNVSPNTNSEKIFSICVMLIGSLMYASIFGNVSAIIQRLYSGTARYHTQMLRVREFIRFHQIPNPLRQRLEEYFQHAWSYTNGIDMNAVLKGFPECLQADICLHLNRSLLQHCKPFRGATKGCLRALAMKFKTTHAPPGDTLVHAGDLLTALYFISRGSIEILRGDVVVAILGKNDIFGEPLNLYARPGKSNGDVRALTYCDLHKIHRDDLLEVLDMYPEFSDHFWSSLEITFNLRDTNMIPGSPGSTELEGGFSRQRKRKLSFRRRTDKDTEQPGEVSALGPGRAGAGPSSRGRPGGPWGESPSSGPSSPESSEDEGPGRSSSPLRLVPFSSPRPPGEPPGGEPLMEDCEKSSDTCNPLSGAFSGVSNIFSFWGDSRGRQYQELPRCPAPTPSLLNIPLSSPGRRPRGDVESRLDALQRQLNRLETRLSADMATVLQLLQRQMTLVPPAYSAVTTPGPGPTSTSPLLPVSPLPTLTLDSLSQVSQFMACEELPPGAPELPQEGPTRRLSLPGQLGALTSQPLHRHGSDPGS", "assay": "primary screen, population patch clamp on CHO cells stably expressing hERG", "units": {"hERG current change (%, negative = inhibition) at 10uM": "%"}, "values": [
      {"smiles": "CN(C)/C=C(\\C=O)c1onc(-c2ccccc2Cl)c1C#N", "hERG current change (%, negative = inhibition) at 10uM": 1.62},
      {"smiles": "Cc1c(CCC(=O)O)c(=O)oc2cc3occ(-c4ccccc4)c3cc12", "hERG current change (%, negative = inhibition) at 10uM": -27.8},
      {"smiles": "Cc1cc(C)c(C#N)c(SCc2ccccc2C)n1", "hERG current change (%, negative = inhibition) at 10uM": 17.7},
      {"smiles": "COC(=O)c1c(NC(=O)CSc2nnc(C)c(=O)[nH]2)sc(C)c1C", "hERG current change (%, negative = inhibition) at 10uM": 27.1},
      {"smiles": "COC(=O)C1CSC(C(=O)OC)N1C(=O)CN1CCN(c2ccc(OC)cc2)CC1", "note": "(centres unmarked)", "hERG current change (%, negative = inhibition) at 10uM": 4.54},
      {"smiles": "COc1ccc(-c2noc(CCC(=O)N3CCN(c4cccc(C(F)(F)F)c4)CC3)n2)cc1", "hERG current change (%, negative = inhibition) at 10uM": 7.75},
      {"smiles": "CC1CCCCC1NC(=O)c1cc(S(=O)(=O)N2CCCCC2)ccc1N1CCOCC1", "note": "(centres unmarked)", "hERG current change (%, negative = inhibition) at 10uM": -9.14},
      {"smiles": "CCC1=NN(C(=O)COc2ccccc2)C(O)(c2ccc(Br)cc2)C1", "note": "(centres unmarked)", "hERG current change (%, negative = inhibition) at 10uM": -28.6},
      {"smiles": "Cc1cccc(N2CCN(C(=O)CSCc3c(C)noc3C)CC2)c1C", "hERG current change (%, negative = inhibition) at 10uM": -14.9},
      {"smiles": "CCN(CC(=O)Nc1c(F)cccc1F)C(=O)c1cccnc1Sc1ccccc1", "hERG current change (%, negative = inhibition) at 10uM": 15.5},
      {"smiles": "Nc1nc(CCl)nc(Nc2cccc3ccccc23)n1", "hERG current change (%, negative = inhibition) at 10uM": -3.1},
      {"smiles": "Cn1c(=O)[nH]c(=O)c2c1nc(N1CCNCC1)n2Cc1cccc2ccccc12", "hERG current change (%, negative = inhibition) at 10uM": -16.4},
      {"smiles": "CC(NC(=O)N(Cc1ccccc1)Cc1ccc2c(c1)OCO2)(C(F)(F)F)C(F)(F)F", "hERG current change (%, negative = inhibition) at 10uM": 7.8},
      {"smiles": "Cc1ccc(C)c(NC(=O)C2COc3ccccc3O2)c1", "note": "(centres unmarked)", "hERG current change (%, negative = inhibition) at 10uM": 14.4},
      {"smiles": "Br.COc1ccc(-c2nc(NC3=NCCCCC3)sc2C)cc1", "hERG current change (%, negative = inhibition) at 10uM": -26.6},
      {"smiles": "CSC(=NC#N)N1CCN(c2cccc(Cl)c2)CC1", "hERG current change (%, negative = inhibition) at 10uM": -30},
      {"smiles": "COc1ccc(-c2cc(C(=O)NCc3ccco3)c3ccccc3n2)c(OC)c1", "hERG current change (%, negative = inhibition) at 10uM": -21},
      {"smiles": "Cc1cccc(C)c1OCc1nc2ccccc2[nH]1", "hERG current change (%, negative = inhibition) at 10uM": -0.773},
      {"smiles": "CCN(CC)c1ccc(/C=C/C(=O)C2C(=O)C=C(C)OC2=O)cc1", "note": "(centres unmarked)", "hERG current change (%, negative = inhibition) at 10uM": 3.74},
      {"smiles": "CCOC(=O)c1c(NC(=O)c2ccc(N3C(=O)[C@@H]4[C@H](C3=O)[C@H]3C=C[C@@H]4C3)cc2)sc2c1CC(C)CC2", "note": "(some centres unmarked)", "hERG current change (%, negative = inhibition) at 10uM": 22.9},
      {"smiles": "CC(C)(C)c1ccc(N2C(=O)CC(C/C=C/c3ccccc3)C2=O)cc1", "note": "(centres unmarked)", "hERG current change (%, negative = inhibition) at 10uM": 9.68},
      {"smiles": "On1c(-c2ccccc2Cl)nc2ccccc21", "hERG current change (%, negative = inhibition) at 10uM": 15.2},
      {"smiles": "Nc1ccccc1SC(C[N+](=O)[O-])c1ccccc1", "note": "(centres unmarked)", "hERG current change (%, negative = inhibition) at 10uM": 3.79},
      {"smiles": "CC(Sc1nc2ccccc2c(=O)n1CCc1ccc(S(N)(=O)=O)cc1)C(=O)NC(N)=O", "note": "(centres unmarked)", "hERG current change (%, negative = inhibition) at 10uM": 10.1},
      {"smiles": "Cc1ccc(N=Nc2c(C)[nH][nH]c2=O)c(C)c1", "hERG current change (%, negative = inhibition) at 10uM": -1.31},
      {"smiles": "CCOc1ccc(S(=O)(=O)Nc2nc3ccccc3nc2-n2ccc(=NC(=O)c3cccs3)cc2)cc1", "hERG current change (%, negative = inhibition) at 10uM": 5.88},
      {"smiles": "COc1ccc(/C=C(/C#N)C(=O)Nc2ccc(C)cc2C)cc1C(=O)O", "hERG current change (%, negative = inhibition) at 10uM": 19.4},
      {"smiles": "Cc1ccc(S(=O)(=O)n2nc(OC(=O)c3ccccc3C)cc2N)cc1", "hERG current change (%, negative = inhibition) at 10uM": 10.8},
      {"smiles": "CCOc1ccc(C2NC(=O)NC(c3ccccc3)=C2C(C)=O)cc1OC", "note": "(centres unmarked)", "hERG current change (%, negative = inhibition) at 10uM": 15.7},
      {"smiles": "Cc1ccc2cc(CN(Cc3ccco3)C(=O)c3ccco3)c3nnnn3c2c1", "hERG current change (%, negative = inhibition) at 10uM": -37},
      {"smiles": "CCCCCCCCCOC(=O)C(CC(=O)O)N1CCOCC1", "note": "(centres unmarked)", "hERG current change (%, negative = inhibition) at 10uM": -1.34},
      {"smiles": "C/C(=C/c1ccccc1)C(=O)N1CCN(c2ccccc2F)CC1", "hERG current change (%, negative = inhibition) at 10uM": -16.4},
      {"smiles": "CCN(CC)S(=O)(=O)c1ccc(N2CCN(c3ccccc3OC)CC2)c(N)c1", "hERG current change (%, negative = inhibition) at 10uM": 8.52},
      {"smiles": "Cc1ccc(Cl)cc1N1CCN(C(=O)c2ccc(NS(=O)(=O)c3c(C)noc3C)cc2)CC1", "hERG current change (%, negative = inhibition) at 10uM": 17.5},
      {"smiles": "Cc1cccc(NC(=O)CSCC(=O)N(C)Cc2ccc(Cl)c(Cl)c2)c1", "hERG current change (%, negative = inhibition) at 10uM": -14.7},
      {"smiles": "COc1ccc(C(=O)Nc2ccc(F)cc2F)cc1", "hERG current change (%, negative = inhibition) at 10uM": -10},
      {"smiles": "Cc1nc(N)nc(OCC(F)(F)C(F)F)c1Br", "hERG current change (%, negative = inhibition) at 10uM": -16},
      {"smiles": "CCCN1CCN(c2ccc(S(N)(=O)=O)cc2[N+](=O)[O-])CC1", "hERG current change (%, negative = inhibition) at 10uM": -31.4},
      {"smiles": "COc1ccccc1C(=O)NC(=O)COC(=O)c1nc2nc(C)cc(C)n2n1", "hERG current change (%, negative = inhibition) at 10uM": 8.79},
      {"smiles": "COC(=O)c1sccc1NC(=O)Nc1cccc(F)c1", "hERG current change (%, negative = inhibition) at 10uM": 4.72},
      {"smiles": "CN1C(=O)NC(NC(=O)C2CCCCC2)(C(F)(F)F)C1=O", "note": "(centres unmarked)", "hERG current change (%, negative = inhibition) at 10uM": 5.43},
      {"smiles": "O=C(COC(=O)C1C2CC3OC(=O)C1C3C2)Nc1ccc(Br)cc1", "note": "(centres unmarked)", "hERG current change (%, negative = inhibition) at 10uM": -10.1},
      {"smiles": "CCOC(=O)N1CCN(Cc2nc(N)nc(Nc3ccc(Cl)cc3)n2)CC1", "hERG current change (%, negative = inhibition) at 10uM": -72.4},
      {"smiles": "O=S(=O)(c1cccc(F)c1)N1CCC(CO)(Cc2cccc(F)c2)CC1", "hERG current change (%, negative = inhibition) at 10uM": -18.2}
    ]}
  ]
}
